The whole screen tested about 110,000 compounds, of which about 230 (0.21%) showed an effect of 50% or more. Some of the results follow.
What follows are compounds tested against DPAP1 (Plasmodium falciparum, UniProt Q8IIJ9) (assay: primary screen, percent inhibition; read by cleavage of a fluorogenic dipeptide substrate; higher = more effect of the substance).
DPAP1, sequence (Q8IIJ9 whole entry, looked up): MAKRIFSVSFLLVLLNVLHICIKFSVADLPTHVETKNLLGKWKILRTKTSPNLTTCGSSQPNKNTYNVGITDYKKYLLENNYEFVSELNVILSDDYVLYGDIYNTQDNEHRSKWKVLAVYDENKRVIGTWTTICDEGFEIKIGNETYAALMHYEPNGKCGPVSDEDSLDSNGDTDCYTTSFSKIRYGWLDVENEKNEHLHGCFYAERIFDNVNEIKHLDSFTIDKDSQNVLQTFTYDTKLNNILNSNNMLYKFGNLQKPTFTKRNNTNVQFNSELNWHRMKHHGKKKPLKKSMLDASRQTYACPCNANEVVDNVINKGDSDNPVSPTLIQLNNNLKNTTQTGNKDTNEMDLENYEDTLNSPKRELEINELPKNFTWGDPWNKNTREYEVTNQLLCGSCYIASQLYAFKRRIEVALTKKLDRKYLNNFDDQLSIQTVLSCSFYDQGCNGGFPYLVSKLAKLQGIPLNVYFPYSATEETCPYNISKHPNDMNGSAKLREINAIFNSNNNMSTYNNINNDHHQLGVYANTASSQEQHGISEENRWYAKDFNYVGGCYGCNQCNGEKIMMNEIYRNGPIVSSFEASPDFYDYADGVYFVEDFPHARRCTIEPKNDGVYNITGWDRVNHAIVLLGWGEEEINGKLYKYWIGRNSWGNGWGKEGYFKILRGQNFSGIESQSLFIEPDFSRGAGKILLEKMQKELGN
Set-up: species or system P. falciparum D10 trophozoite lysates; single well
In the case of `Cc1cc2c(o1)-c1c(oc3ccc(Cl)cc13)CCC2C` (centres unmarked), the “% Inhibition @ 10 uM” value is reported as 3.32%. In the case of `O=CN1CCN(Cc2c(Cl)cccc2Cl)CC1`, the “% Inhibition @ 10 uM” value is reported as -0.0494%. With `COc1ccc(CNC(=O)c2cc3cc4ccc(OC)cc4nc3s2)cc1` the “% Inhibition @ 10 uM” value was -0.984%. With `O=C(/C=C/c1ccc2c(c1)OCO2)Nc1ccccc1Cl` the “% Inhibition @ 10 uM” value was -3.94%. In the case of `O=C1C=CC(=O)N1c1ccc(Oc2ccccc2)cc1`, the “% Inhibition @ 10 uM” value is reported as -0.999%. With `N#C/C(=C\c1ccccc1Cl)c1nc(-c2cccs2)cs1` the “% Inhibition @ 10 uM” value was 4.26%. In the case of `Cn1c(COc2cccc3ccccc23)nc2ccccc21`, the “% Inhibition @ 10 uM” value is reported as -8.05%. In the case of `CCOc1ccc(-n2c(C)nnc2SCc2nc(-c3ccc(C)cc3)no2)cc1`, the “% Inhibition @ 10 uM” value is reported as -4.02%. For `CCOC(=O)N1CCC(NC(=O)c2nn(C)c3c2CS(=O)(=O)c2ccccc2-3)CC1`, the “% Inhibition @ 10 uM” value was -0.495%. With `CCOc1ccc(S(=O)(=O)N2CCN(Cc3ccccc3)CC2)c2ccccc12` the “% Inhibition @ 10 uM” value was 7.63%. For `O=S(=O)(NCc1ccc(C(F)(F)F)cc1)c1ccc(-n2cnnn2)cc1`, the “% Inhibition @ 10 uM” value was 0.635%. For `CC1CCCC(N2CCC(C(N)=O)CC2)C1` (centres unmarked), the “% Inhibition @ 10 uM” value was 5.03%. `Cn1c(=O)c2c(nc(CN3CCN(Cc4ccccc4)CC3)n2Cc2ccccc2Cl)n(C)c1=O` was tested, and the “% Inhibition @ 10 uM” value was 4.51%. For `N#Cc1c(SCC(N)=O)nsc1SCc1ccc(Cl)cc1`, the “% Inhibition @ 10 uM” value was 5.54%. In the case of `O=C(c1cccc(C(=O)N2CCc3ccccc32)n1)N1CCc2ccccc21`, the “% Inhibition @ 10 uM” value is reported as -0.132%. In the case of `CC1(C)CC(NC(=O)c2ccc3ccccc3c2)CC(C)(C)N1`, the “% Inhibition @ 10 uM” value is reported as 1.42%. For `COc1ccc2c(C)c(CC(=O)NCc3ccco3)c(=O)oc2c1C`, the “% Inhibition @ 10 uM” value was -0.808%. In the case of `COc1ccccc1-c1nc2s/c(=C\c3cccc(Br)c3)c(=O)n2n1`, the “% Inhibition @ 10 uM” value is reported as -4.85%. With `COc1cc(C(=O)Nc2cc(C)ccc2C)cc(OC)c1OC` the “% Inhibition @ 10 uM” value was -2.74%. With `NC(=S)n1nc(-c2ccccc2)cc1O` the “% Inhibition @ 10 uM” value was -8.37%. With `O=C(O)Cn1ncn2c(cc3cc(F)ccc32)c1=O` the “% Inhibition @ 10 uM” value was 3.24%. With `CCOC(=O)c1ccc2[nH]c3c(c2c1)CN(C)CC3` the “% Inhibition @ 10 uM” value was 1.88%. In the case of `COc1ccc(CN2CCN(S(C)(=O)=O)CC2)cc1Br`, the “% Inhibition @ 10 uM” value is reported as 2.26%. For `Cc1ccccc1-c1nc(CS(=O)(=O)CC(=O)NCCCN2CCCC2=O)c(C)o1`, the “% Inhibition @ 10 uM” value was -7.53%. For `Cc1cc(CN2CCN(C/C=C/c3ccccc3)CC2)c(C)n1-c1cccc(C(F)(F)F)c1`, the “% Inhibition @ 10 uM” value was -0.0648%. With `N#Cc1ncccc1CCc1cccc(Cl)c1` the “% Inhibition @ 10 uM” value was 0.983%. In the case of `O=C(/C=C/c1ccco1)c1ccc(C(=O)/C=C/c2ccco2)cc1`, the “% Inhibition @ 10 uM” value is reported as -0.268%. For `CCC(C)NC(=O)c1coc2nc3ccccc3nc12` (centres unmarked), the “% Inhibition @ 10 uM” value was -0.971%. In the case of `O=C(Nc1cc(C(F)(F)F)ccc1F)C12CC3CC(C1)CC(n1cnc(Cl)n1)(C3)C2`, the “% Inhibition @ 10 uM” value is reported as 2.43%. In the case of `O=C(Cn1c2ccccc2c2cnnc(O)c21)NCc1ccccc1Cl`, the “% Inhibition @ 10 uM” value is reported as 1.38%. With `CCCOc1ccc(Cc2nn3c(=O)/c(=C\c4cccc(OC)c4OC)sc3nc2=O)cc1` the “% Inhibition @ 10 uM” value was 1.23%. `Cc1ccc(/C=C(\NC(=O)c2ccccc2)C(=O)NC2CCCC2)o1` was tested, and the “% Inhibition @ 10 uM” value was 4.33%. With `Cc1ccc(S(=O)(=O)N2CCN(C(=O)c3cccnc3)CC2)cc1` the “% Inhibition @ 10 uM” value was -3.4%. `CN(C)CC1=C(c2ccccc2)Oc2ccccc2C1c1ccccc1` (centres unmarked) was tested, and the “% Inhibition @ 10 uM” value was -0.902%. In the case of `O=C(O)C1(c2ccc3c(c2)OCCO3)CCCC1`, the “% Inhibition @ 10 uM” value is reported as -2.63%. With `CN(c1cccc(NC(=O)CN(c2cccc(F)c2)S(C)(=O)=O)c1)S(C)(=O)=O` the “% Inhibition @ 10 uM” value was -12.1%. With `COc1ccc(OC)c(NC(=O)c2cc3ccccc3cc2O)c1` the “% Inhibition @ 10 uM” value was 7.59%. With `COc1ccc(C(=O)/C=C2/Sc3ccccc3N2C)cc1` the “% Inhibition @ 10 uM” value was 1.96%. `COCCNc1nc2c(S(=O)(=O)c3ccc(Br)cc3)nnn2c2ccsc12` was tested, and the “% Inhibition @ 10 uM” value was -6.51%. `COc1cc(C=C2C(=O)NC(=O)NC2=O)ccc1OS(=O)(=O)c1ccccc1` was tested, and the “% Inhibition @ 10 uM” value was -1.93%. In the case of `Cc1ccc(S(=O)(=O)Nc2cccnc2)cc1`, the “% Inhibition @ 10 uM” value is reported as 2.24%. In the case of `COc1cccc(CNCCCSc2nnnn2-c2ccccc2)c1`, the “% Inhibition @ 10 uM” value is reported as -1.11%. For `NC(=O)c1c(N)c(C(=O)c2ccc(Cl)cc2)n2ccccc12`, the “% Inhibition @ 10 uM” value was -3.75%. `O=C(COc1ccccc1)NC1CCCCC1NC(=O)COc1ccccc1` (centres unmarked) was tested, and the “% Inhibition @ 10 uM” value was -2.75%. With `N=c1n(CCO)c2ccccc2n1Cc1ccccc1` the “% Inhibition @ 10 uM” value was 5.04%. With `CCOC(=O)N1CCN(c2cnnc3c(Cl)cccc23)CC1` the “% Inhibition @ 10 uM” value was -0.527%. For `Cc1ccc(NC=C2C(=O)N(C)C(=O)N(C)C2=O)cc1`, the “% Inhibition @ 10 uM” value was 2.36%. For `CC(CCN1CCN(C/C=C/c2ccccc2)CC1)c1ccccc1` (centres unmarked), the “% Inhibition @ 10 uM” value was -4.95%. In the case of `CN(CCCNS(=O)(=O)c1csc(C(N)=O)c1)C1CCCCC1`, the “% Inhibition @ 10 uM” value is reported as -1.77%. With `CC1C(c2ccccc2)N(C)CCC1(O)c1ccccc1` (centres unmarked) the “% Inhibition @ 10 uM” value was -4.35%. In the case of `COC(=O)C1=C(C)OC(N)=C(C#N)C1c1ccccc1Cl` (centres unmarked), the “% Inhibition @ 10 uM” value is reported as 0.467%. With `N#CCNC(=O)C(Cc1ccc2occc2c1)NC(=O)c1ccc(N2CCOCC2)cc1` (centres unmarked) the “% Inhibition @ 10 uM” value was 0.173%. For `CSc1ccc(C2NC(=O)c3c(sc4c3CCN(C)C4)N2)cc1` (centres unmarked), the “% Inhibition @ 10 uM” value was 4.39%. `COc1ccc(CCNC(=O)Cn2ncn3nc(-c4cccs4)cc3c2=O)cc1OC` was tested, and the “% Inhibition @ 10 uM” value was 2.07%. For `CC(Cc1c[nH]c2ccccc12)N1C(=O)c2ccccc2C1=O` (centres unmarked), the “% Inhibition @ 10 uM” value was -1.76%. For `Cc1nc2ccccc2n1CCN1CCCCC1`, the “% Inhibition @ 10 uM” value was 1.13%. For `N#CC1=C(N)Oc2c(c(=O)oc3ccccc23)C1c1cccc(O)c1` (centres unmarked), the “% Inhibition @ 10 uM” value was 1.7%. `CCCCOc1ccccc1-c1cc(C(=O)OC)[nH]n1` was tested, and the “% Inhibition @ 10 uM” value was 3.11%. For `O=C(NCc1ccccn1)c1cccc2ccccc12`, the “% Inhibition @ 10 uM” value was 5.31%. With `O=C(Nc1ccc(Cl)cc1)c1ccc(N2C(=O)CCC2=O)cc1` the “% Inhibition @ 10 uM” value was -4.82%. In the case of `COCCCN1C(=O)C(O)=C(C(=O)c2ccc(Cl)cc2)C1c1ccc(Cl)c(Cl)c1` (centres unmarked), the “% Inhibition @ 10 uM” value is reported as -3.45%. In the case of `Clc1ccc(-c2noc3ncnc(N(Cc4ccco4)CC4CCCO4)c23)cc1` (centres unmarked), the “% Inhibition @ 10 uM” value is reported as 18.5%. In the case of `CCOc1ccc2c(c1)[N+](C)(C)C(C)(C)C=C2C`, the “% Inhibition @ 10 uM” value is reported as 1.63%. In the case of `COc1ccc(CC(=O)NC2CCCCC2NC(=O)Cc2ccc(OC)cc2)cc1` (centres unmarked), the “% Inhibition @ 10 uM” value is reported as 0.145%. For `CCC(C)n1c(=O)c2sccc2n2c(CCCC(=O)NCCc3c[nH]c4ccccc34)nnc12` (centres unmarked), the “% Inhibition @ 10 uM” value was -5.05%.
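Further: 30 min substrate incubation versus DMSO and 10 µM JCP410 controls.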
